Assay results taken from article PMC4336329 (PLoS ONE, 2015).
Hit rate of the full screen: of about 310,000 compounds, about 14,000 (4.5%) showed an effect of 50% or more. The effect is printed as a negative number. Some of the results follow.

biological target: human ether-à-go-go-related gene (hERG) potassium channel (human, UniProt Q12809); assay: primary screen, population patch clamp on CHO cells stably expressing hERG
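Also: peak tail current of the secondary pulse compared with the same well before compound.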

Chain of human ether-à-go-go-related gene (hERG) potassium channel (Q12809 whole entry, looked up): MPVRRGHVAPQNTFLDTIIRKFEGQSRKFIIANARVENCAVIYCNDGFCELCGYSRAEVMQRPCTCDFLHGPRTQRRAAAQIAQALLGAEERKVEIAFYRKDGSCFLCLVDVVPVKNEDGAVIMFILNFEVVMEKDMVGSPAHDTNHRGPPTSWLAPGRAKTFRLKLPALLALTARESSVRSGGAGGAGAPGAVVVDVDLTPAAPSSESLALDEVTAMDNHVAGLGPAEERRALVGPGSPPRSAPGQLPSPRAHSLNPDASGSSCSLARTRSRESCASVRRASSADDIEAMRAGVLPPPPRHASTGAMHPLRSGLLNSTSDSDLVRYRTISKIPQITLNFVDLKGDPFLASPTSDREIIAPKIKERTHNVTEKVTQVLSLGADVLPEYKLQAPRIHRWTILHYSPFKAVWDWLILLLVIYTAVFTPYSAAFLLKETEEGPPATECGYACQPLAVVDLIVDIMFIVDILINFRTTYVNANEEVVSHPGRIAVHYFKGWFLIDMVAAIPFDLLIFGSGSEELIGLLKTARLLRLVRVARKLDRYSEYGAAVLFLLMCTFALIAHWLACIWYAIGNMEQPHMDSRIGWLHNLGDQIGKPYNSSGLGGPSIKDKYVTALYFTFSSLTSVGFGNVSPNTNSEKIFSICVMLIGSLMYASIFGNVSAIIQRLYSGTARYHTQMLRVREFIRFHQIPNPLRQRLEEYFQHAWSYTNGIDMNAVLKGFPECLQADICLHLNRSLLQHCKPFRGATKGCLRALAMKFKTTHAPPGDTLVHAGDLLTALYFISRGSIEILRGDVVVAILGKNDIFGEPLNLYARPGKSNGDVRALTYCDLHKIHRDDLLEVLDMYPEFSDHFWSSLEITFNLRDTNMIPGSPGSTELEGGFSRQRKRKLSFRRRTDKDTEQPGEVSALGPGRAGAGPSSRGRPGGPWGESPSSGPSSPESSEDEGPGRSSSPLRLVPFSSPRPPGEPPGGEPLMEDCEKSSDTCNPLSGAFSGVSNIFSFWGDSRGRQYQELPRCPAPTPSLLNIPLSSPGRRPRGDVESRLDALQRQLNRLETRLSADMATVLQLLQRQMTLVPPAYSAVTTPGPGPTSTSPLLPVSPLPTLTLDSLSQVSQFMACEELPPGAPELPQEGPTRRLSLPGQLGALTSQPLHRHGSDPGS

In order of falling “hERG current change (%, negative = inhibition) at 10uM” value:
1. COc1cccc(-c2noc(-c3ccc(Br)o3)n2)c1  25.3%
2. COc1ccc2c(c1)cc(C)c1nnc(SCC(=O)N(C)c3nc(-c4ccccc4)cs3)n12  22.3%
3. CCOC(=O)C1=C(C)NC(=S)NC1c1cccs1 (stereo not shown)  18.9%
4. Cc1cc2c(c(=O)o1)C1(C(=O)N(C)c3ccccc31)C(C#N)=C(N)O2 (stereo not shown)  18.8%
5. CC1=C(C(=O)Nc2ccccc2)C(c2cccs2)NC(=O)N1 (stereo not shown)  15.6%
6. CN1CCN(C(=O)CSc2nc(-c3ccco3)cc(C(F)(F)F)n2)CC1  15.3%
7. Cc1ccc(C(=O)Nc2c(C#N)c(C)c(C)n2Cc2ccccc2)cc1  13.2%
8. O=C(Cc1c[nH]c2ccccc12)N[C@@H](Cc1c[nH]c2ccccc12)C(=O)O  13.1%
9. COc1cc2[nH]c(=S)nc(NCc3cccc(Cl)c3)c2cc1OC  11.2%
10. Cc1ccc(CN2C(=O)CCC2C(=O)NCCCN2CCCCC2C)cc1 (stereo not shown)  8.87%
11. C/C(=N\NC(=O)c1c(Cl)c(C)nn1C)c1ccc(NC(=O)c2ccncc2)cc1  7.84%
12. CCn1c2ccccc2c2cc(CN3CCN(Cc4cc(OC)ccc4O)CC3)ccc21.O=C(O)C(=O)O  7.15%
13. Cc1cccc(OC(=O)CN2C(=O)C3C4CCC(C4)C3C2=O)c1C (stereo not shown)  7.14%
14. CCn1c(CNC(=O)c2cc(OC)c(OC)c(OC)c2)cc2ccccc21  6.52%
15. CN(C)c1cccc(C(=O)NCC(c2ccco2)N(C)C)c1 (stereo not shown)  5.5%
16. COc1cc(OC)c(NC(=O)C2CCN(S(=O)(=O)c3ccc4c(c3)CC(C)N4C(C)=O)CC2)cc1Cl (stereo not shown)  5.17%
17. COc1ccc(NC(=O)C2CC(=O)n3c(nc4ccccc43)N2)cc1 (stereo not shown)  4.58%
18. CCN(c1ccccc1)c1cc2ccccc2c(=O)[nH]1  3.64%
19. Cn1c(SCC(=O)Nc2nccs2)nnc1-c1ccc(S(=O)(=O)N2CCCC2)cc1  2.67%
20. Nc1nc(CSc2ccccn2)nc(Nc2ccccc2)n1  1.81%
21. Cc1cc(C)n2nc(C(=O)Nc3ccc(N4CCOCC4)cc3)nc2n1  1.03%
22. OCCN(Cc1ccccc1)C(=S)Nc1ccc(Cl)cc1Cl  -0.423%
23. O=C(NCc1ccc2c(c1)OCO2)c1cc(-c2ccccc2)on1  -0.746%
24. O=C(NCC1CCCO1)Nc1cccc(Cl)c1 (stereo not shown)  -2.55%
25. CCN(CC)S(=O)(=O)c1ccc(-c2nnc3sc4cccc(C)c4n23)cc1  -3.16%
26. Cc1csc(N/N=C\c2cccnc2)n1  -8.35%
27. COc1ccc(NC(=O)c2cc3sccc3n2Cc2ccc(F)cc2)cc1OC  -8.54%
28. Cc1[nH]c2ccccc2c1C(=O)CSC(=S)N1CCCCC1  -8.66%
29. Cc1ccc(NC2CCCN(C(=O)c3ccc(F)cc3)C2)cc1C (stereo not shown)  -9.71%
30. N#Cc1cnc(SCCc2ccccc2)nc1N  -10.1%
31. C/C(=N\NC(=O)c1cccc([N+](=O)[O-])c1)c1ccncc1  -10.9%
32. Cc1ccc2c(Cl)cc(Cl)c(OCC(=O)NC(=O)NCc3ccco3)c2n1  -11.7%
33. CCOC(=O)C(CC)Sc1cc(C)nc2ccc(OC)cc12 (stereo not shown)  -13.4%
34. CCOC(=O)CC(NC(=O)c1cccc2c1C(=O)N(Cc1cccnc1)C2)c1ccc(OCC)c(OC)c1 (stereo not shown)  -14.6%
35. O=C(/C=C/c1ccccc1)OCCCN=C1NS(=O)(=O)c2ccccc21  -15.6%
36. Cc1ccc(OCC(=O)NN=C2c3ccccc3-c3ccccc32)cc1  -16.3%
37. Cc1ccc(C(=O)N/C(=C\c2ccco2)C(=O)NC2CCS(=O)(=O)C2)cc1 (stereo not shown)  -18.3%
38. Cc1ccccc1OCC(=O)Nn1c(COc2ccccc2)nc2ccccc2c1=O  -26.1%
39. CCOC(=O)COc1ccc(S(=O)(=O)Nc2ccc(C)cc2)cc1  -33%
40. CCN(c1ccc(OC)cc1)S(=O)(=O)c1csc(C(=O)N2CCCC2)c1  -35%
41. Cl.O=C(CN1CCCC1)Nc1ccc(OC(F)(F)F)cc1  -41.1%
42. CN1CCc2ccc(NC(=O)c3ccc(C(F)(F)F)cc3)cc2C1  -53.8%
43. CCN(CC(=O)Nc1ccccc1C(=O)Nc1ccccc1)Cc1nc2ccccc2c(=O)[nH]1  -75.6%
